Experimental data as given in the supplement of paper PMC11417369.
± gives the standard deviation of the averaged measurements. Some of the results follow.

tested on: PfAP2-G AP2 domain (GST-tagged); assay: gcPBM binding intensity (ln(normalized median fluorescence intensity)); higher = stronger DNA binding
How it was run: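 For binding intensity, the highest Masliner-normalised natural-log median intensity across replicate spots of either probe orientation was taken. Protein bound to the array was stained with Alexa488 anti-GST antibody and scanned at 488 nm. The protein, GST-tagged P. falciparum DNA-binding domains from E. coli at about 25 μg on average, had been applied for 1 h to an Agilent 4 × 180k array of primer-extended double-stranded 36-bp intergenic genomic probes and negative controls.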

Sequence | gcPBM binding intensity (ln)
AATACATACACAAATACACACACAAATACATACACA [CACACA_site8134] | 10.3 ± 0.38
ATATATGTATGTTAGACACACATATTATAATATGTT [CACACA_site116] | 10.09 ± 0.021
AAAACGGATTCTTTATAAATAAATAAATAAATATAA [XGTACX_negctrl_site157] | 9.85 ± 0.071
AATACATAATAACGTTGTACAAAAATTATAATACAT [XGTACX_site6508] | 11.1 ± 0.55
ACTATTAAGAATAAAGAAATATGTAATTGTATTTAA [CACACA_negctrl_site516] | 9.78 ± 0.12
TTTATCAAAAAAAAAAAAAAAAAAAAAAAAAATTGT [CACACA_negctrl_site176] | 9.6 ± 0.17
TTATGTGCTTTAAAAGTGCATTTTTTTTTTTTTTTT | 10.3 ± 0.28
TATATGTTTTATAAATGTACATATACTTAAATATTT [XGTACX_site4753] | 11 ± 0.7
TTATTTGTATCCATTTCACACATTTTATATAGTATC [CACACA_site5989] | 10.3 ± 0.19
TTTTTTGTTATGCGGGTGCATATAATAATGTGATGA | 10.3 ± 0.42
TATAAATAAATGTGTACACACATTAAAATCAAACGT [CACACA_site2340] | 11.7 ± 0.96
AAACATACTTGATGCAGTACACATTATAAGCACATA [XGTACX_site3359] | 11.2 ± 0.62
TCCTCGCGTAATACTTTTCAAATAAAAAAAATAAAA [TGCATGCA_negctrl_site403] | 10.5 ± 0.48
ATTAAAAATTAATATAAACACACAAAAATTAATAAA [CACACA_site8019] | 9.915 ± 0.035
TTTTTTTTTTTTTATTGTACTAGTAGATATATATAC [XGTACX_site3463] | 10.9 ± 0.82
CCAATATATACATATATATAGTTATATATATTTCCT [TGCATGCA_negctrl_site38] | 9.69 ± 0.2
GTGTCAAATTTTATAACACACAAAAGATTATATAAG [CACACA_site4086] | 10.1 ± 0.092
GGACTTAAATAAAATGGTACAGAATTTATATATATT [XGTACX_site8214] | 10.9 ± 0.56
ATATATGTATATGTGTGTACATATATGTTTATTATT [XGTACX_site6043] | 11.3 ± 0.77

Sequence | gcPBM binding intensity (ln)
TTTTAAAAATTAAAAAAATTAAATGTAAAAAAATGA [CACACA_negctrl_site861] | 9.9 ± 0.18
ATTTAACAACTTCAAACACACAATATATATATATAT [CACACA_site2093] | 10.3 ± 0.57
AATTCAAATATAAATACACACACATAGCTACAAAAT [CACACA_site9386] | 10.035 ± 0.007
AAATATATATGTGGGGGTACTAATAAAAAAACCCCT [XGTACX_site2657] | 11.3 ± 0.86
CATAAATTAATAGTCACACACGTATTTTTTATATAT [CACACA_site2526] | 10.4 ± 0.11
TAGGCGTTTAATAAAAGTACCCACACATATATTATT [XGTACX_site1932] | 11.1 ± 0.54
TTTATTATCGTTCTCATACACACAAAATATACATAC [CACACA_site2642] | 10.22 ± 0.071
GAAAAAAGAAAAAAAAGTACATATATTTAATAAGAC [XGTACX_site6912] | 11.4 ± 0.86
TTATCCATAAAAAAGTGTACGCACTAAAATTGAAAA [XGTACX_site5460] | 11.6 ± 0.99
TATAATTCATATGAAACACACATTTATTTTAATTAC [CACACA_site3686] | 10 ± 0.23
TTACACAAACAAATTATGGACACATAAGTAAAAGGA [CACACA_negctrl_site1622] | 11 ± 0.49
TGAAAAAAAAAAAAAAAAAAAAGAAAAAAAAAAAAA [CACACA_negctrl_site709] | 9.51 ± 0.042
CATATGTTCATCATAGCACACATATATAAATTACAA [CACACA_site9177] | 10.4 ± 0.15
CATATATATTTGTTCACACACACACCCAAAAAAAAA [CACACA_site2476] | 10.5 ± 0.38
CACACCCACAGACACACACACACATATATATATATA [CACACA_site363] | 10.3 ± 0.26
ATATATATATATATTTGTACATATATACATAAAATT [XGTACX_site359] | 10.8 ± 0.54
GAAAAAGTTATAAATTGTACTAAATATTAAATATTG [XGTACX_site7890] | 10.8 ± 0.49
TTTAAAATGGGACTTTGAAAAAAAAAAAAAAAAACA [TGCATGCA_negctrl_site111] | 10.1 ± 0.32
TATAGGTATGTATGTACACACAAAAAATGGAATATA [CACACA_site7704] | 11.4 ± 0.76

Sequence | gcPBM binding intensity (ln)
TATATATATATATATTGTACATAATGTATATATGTT [XGTACX_site3448] | 10.9 ± 0.68
GTTATTTATAGACACACACACATGCATGCACATATA [CACACA_site6204] | 10.2 ± 0.15
AAATAAATAAGAAACGCATGCATATATAATATATAA [TGCATGCA_site326] | 9.83 ± 0.057
AAAAAAAAAAAAAGGTGTACATGCAAAATAAATTCT [XGTACX_site4592] | 11.6 ± 0.93
GAAATAAAAAGAAATGCATGTAATTTTTTTTTTTTT [TGCATGCA_site928] | 9.415 ± 0.064
ATAAGTATAAGAATCAGTACACAGTTTCTACATACT [XGTACX_site5834] | 11.2 ± 0.76
GACTTTTCATTTATAGTGCAAGTTTTTTTTTTTTTT [GTGCAC_site9698] | 10.1 ± 0.23
ATAAATATAAAAAAATGTACATATAGTAATACATAC [XGTACX_site508] | 11 ± 0.71
TATATATCATTTAAAACACACAAAAAAAAAAGTTAT [CACACA_site6191] | 9.97 ± 0.071
TATTATTGTTGTTCATGTACACACTATAATAAAAGC [XGTACX_site8957] | 11.5 ± 0.84
GAGATAAAATAAAACACACACATATATATATATAAT [CACACA_site5246] | 9.875 ± 0.064
AATGACTAAATTTAAACACACAAGGGGAGTTTACTT [CACACA_site918] | 9.71 ± 0.15
ATTAAAACCAATTAAAAAAAATTTATAATGGAAGCA [TGCATGCA_negctrl_site273] | 9.79 ± 0.18
AAGTTATAAAAATAAAGTACAAAGTAGCTATTTTTT [XGTACX_site3144] | 11.1 ± 0.77
TTGTATTTTTAAATGACACACACATATATATATATA [CACACA_site8481] | 10.2 ± 0.39
AATAAATAAGCACATACACACATACATACATACATA [CACACA_site6075] | 10.12 ± 0.092
ATATGTAAAGAAAAGTAAACACTAATTTTAAACAAT [CACACA_negctrl_site11] | 9.995 ± 0.007
TATATATATGTGCAGTGTACTTTTTTTTTCTGTAAG [XGTACX_site3424] | 11.5 ± 0.92
